# Data taken from the supplement of paper PMC8728848.
# Some of the results follow.
# Key:
# Assay in all cases: glycan array binding signal (z-score within array); higher = stronger binding
# Conditions in all cases: glycan notation: IUPAC condensed, linker removed
# [1] = biological target: GlcNAc(b1-3)Gal(b1-4)GlcNAc(b1-3)Gal(b1-4)GlcNAc(b1-3)Gal(b1-4)GlcNAc(b1-3)Gal(b1-4)GlcNAc(b1-2)Man(a1-3)[GlcNAc(b1-3)Gal(b1-4)GlcNAc(b1-3)Gal(b1-4)GlcNAc(b1-3)Gal(b1-4)GlcNAc(b1-3)Gal(b1-4)GlcNAc(b1-2)Man(a1-6)]Man(b1-4)GlcNAc(b1-4)[Fuc(a1-6)]GlcNAc
# Outline: (§1)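 Negative Z-scores can be read as non-binding. The Z-score is calculated within each array and then averaged across arrays of one protein sequence at different concentrations or buffers and across linkers. Arrays, 3228 in all, were curated from the Consortium for Functional Glycomics database and kept only where the protein sequence was available.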
# [2] = biological target: GlcNAc(b1-3)Gal(b1-4)GlcNAc(b1-3)Gal(b1-4)GlcNAc(b1-3)Gal(b1-4)GlcNAc(b1-3)Gal(b1-4)GlcNAc(b1-2)[GlcNAc(b1-3)Gal(b1-4)GlcNAc(b1-3)Gal(b1-4)GlcNAc(b1-3)Gal(b1-4)GlcNAc(b1-3)Gal(b1-4)GlcNAc(b1-6)]Man(a1-6)[GlcNAc(b1-3)Gal(b1-4)GlcNAc(b1-3)Gal(b1-4)GlcNAc(b1-3)Gal(b1-4)GlcNAc(b1-3)Gal(b1-4)GlcNAc(b1-2)Man(a1-3)]Man(b1-4)GlcNAc(b1-4)[Fuc(a1-6)]GlcNAc
# Outline: as §1
# [3] = biological target: GlcNAc(b1-3)Gal(b1-4)GlcNAc(b1-3)Gal(b1-4)GlcNAc(b1-3)GalNAc
# Outline: as §1
# [4] = biological target: GlcNAc(b1-3)Gal(b1-4)GlcNAc(b1-3)GalNAc
# Outline: as §1
# [5] = biological target: GlcNAc(b1-3)Gal(b1-4)GlcNAc(b1-3)[GlcNAc(b1-3)Gal(b1-4)GlcNAc(b1-3)]GalNAc
# Outline: as §1
# [6] = biological target: GlcNAc(b1-3)Gal(b1-4)GlcNAc(b1-6)[Gal(b1-3)]GalNAc
# Outline: as §1
# [7] = biological target: GlcNAc(b1-3)Gal(b1-4)GlcNAc(b1-6)[GlcNAc(b1-3)Gal(b1-3)]GalNAc
# Outline: as §1
# [8] = biological target: GlcNAc(b1-3)Gal(b1-4)GlcNAc(b1-6)[GlcNAc(b1-3)]Gal(b1-4)GlcNAc
# Outline: as §1
# GlcNAc(b1-3)GalNAc = biological target: GlcNAc(b1-3)GalNAc
# Outline: as §1
# GlcNAc(b1-3)Man = biological target: GlcNAc(b1-3)Man
# Outline: as §1
# [9] = biological target: GlcNAc(b1-3)[GlcNAc(b1-4)][GlcNAc(b1-6)]GlcNAc
# Outline: as §1
# [10] = biological target: GlcNAc(b1-3)[GlcNAc(b1-6)]Gal(b1-4)GlcNAc
# Outline: as §1
# [11] = biological target: GlcNAc(b1-3)[GlcNAc(b1-6)]GalNAc
# Outline: as §1
# [12] = biological target: GlcNAc(b1-3)[GlcNAc(b1-6)]GlcNAc(b1-4)GlcNAc
# Outline: as §1
# [13] = biological target: GlcNAc(b1-4)Gal(b1-4)GlcNAc
# Outline: as §1
# GlcNAc(b1-4)GlcNAc = biological target: GlcNAc(b1-4)GlcNAc
# Outline: as §1
# [14] = biological target: GlcNAc(b1-4)GlcNAc(b1-4)GlcNAc
# Outline: as §1
# [15] = biological target: GlcNAc(b1-4)GlcNAc(b1-4)GlcNAc(b1-4)GlcNAc(b1-4)GlcNAc
# Outline: as §1
# [16] = biological target: GlcNAc(b1-4)GlcNAc(b1-4)GlcNAc(b1-4)GlcNAc(b1-4)GlcNAc(b1-4)GlcNAc
# Outline: as §1
# [17] = biological target: GlcNAc(b1-4)[GlcNAc(b1-6)]GalNAc
# Outline: as §1
# [18] = biological target: GlcNAc(b1-6)Gal(b1-4)GlcNAc
# Outline: as §1
# GlcNAc(b1-6)GalNAc = biological target: GlcNAc(b1-6)GalNAc
# Outline: as §1
# GlcNAc3Prop(b1-4)GlcNAc = biological target: GlcNAc3Prop(b1-4)GlcNAc
# Outline: as §1
# [19] = biological target: GlcNAc6S(b1-3)Gal(b1-4)GlcNAc
# Outline: as §1
# Kdn(a2-3)Gal(b1-3)GalNAc = biological target: Kdn(a2-3)Gal(b1-3)GalNAc
# Outline: as §1
# Kdn(a2-3)Gal(b1-3)GlcNAc = biological target: Kdn(a2-3)Gal(b1-3)GlcNAc
# Outline: as §1
# Kdn(a2-3)Gal(b1-4)Glc = biological target: Kdn(a2-3)Gal(b1-4)Glc
# Outline: as §1
# Kdn(a2-3)Gal(b1-4)GlcNAc = biological target: Kdn(a2-3)Gal(b1-4)GlcNAc
# Outline: as §1
# [20] = biological target: Kdn(a2-3)Gal(b1-4)[Fuc(a1-3)]GlcNAc
# Outline: as §1
# Kdn(a2-6)Gal(b1-4)GlcNAc = biological target: Kdn(a2-6)Gal(b1-4)GlcNAc
# Outline: as §1
# [21] = biological target: Man(a1-2)Man(a1-2)Man(a1-3)Man
# Outline: as §1
# [22] = biological target: Man(a1-2)Man(a1-2)Man(a1-6)[Man(a1-3)]Man
# Outline: as §1
# Man(a1-2)Man(a1-3)Man = biological target: Man(a1-2)Man(a1-3)Man
# Outline: as §1
# [23] = biological target: Man(a1-2)Man(a1-3)[Man(a1-2)Man(a1-6)]Man
# Outline: as §1
# [24] = biological target: Man(a1-2)Man(a1-3)[Man(a1-2)Man(a1-6)]Man(a1-6)[Man(a1-2)Man(a1-2)Man(a1-3)]Man
# Outline: as §1
# [25] = biological target: Man(a1-2)Man(a1-3)[Man(a1-2)Man(a1-6)]Man(a1-6)[Man(a1-2)Man(a1-2)Man(a1-3)]Man(b1-4)GlcNAc(b1-4)GlcNAc
# Outline: as §1
# [26] = biological target: Man(a1-2)Man(a1-3)[Man(a1-6)]Man(a1-6)[Man(a1-2)Man(a1-3)]Man(b1-4)GlcNAc(b1-4)GlcNAc
# Outline: as §1
# [27] = biological target: Man(a1-2)Man(a1-6)[Man(a1-3)]Man(a1-6)[Man(a1-2)Man(a1-2)Man(a1-3)]Man
# Outline: as §1
binder,measurement,setting,value
Gal 8 (Homo sapiens) (protein) MLSLNNLQNIIYNPVIPYVGTIPDQLDPGTLIVICGHVPSDADRFQVDLQNGSSVKPRADVAFHFNPRFKRAGCIVCNTLINEKWGREEITYDTPFKREKSFEIVIMVLKDKFQVAVNGKHTLLYGHRIGPEKIDTLGIYGKVNIHSIGFSFSSDLQSTQASSLELTEISRENVPKSGTPQLQTVSPSWDLQGHGSETFCSVLWTRVFLEIAFCRPIGLTVASFQSLPFAARLNTPMGPGRTVVVKGEVNANAKSFNVDLLAGKSKDIALHLNPRLNIKAFVRNSFLQESWGEEERNITSFPFSPGMYFEMIIYCDVREFKVAVNGVHSLEYKHRFKELSSIDTLEINGDIHLLEVRSW,glycan array binding signal (z-score),[1],3.35
same,glycan array binding signal (z-score),[2],6.06
same,glycan array binding signal (z-score),[3],0.069
same,glycan array binding signal (z-score),[4],-0.355
same,glycan array binding signal (z-score),[5],-0.35
same,glycan array binding signal (z-score),[6],-0.328
same,glycan array binding signal (z-score),[7],-0.264
same,glycan array binding signal (z-score),[8],-0.355
same,glycan array binding signal (z-score),GlcNAc(b1-3)GalNAc,-0.379
same,glycan array binding signal (z-score),GlcNAc(b1-3)Man,-0.316
same,glycan array binding signal (z-score),[9],-0.354
same,glycan array binding signal (z-score),[10],-0.41
same,glycan array binding signal (z-score),[11],-0.386
same,glycan array binding signal (z-score),[12],-0.727
same,glycan array binding signal (z-score),[13],-0.2
same,glycan array binding signal (z-score),GlcNAc(b1-4)GlcNAc,-0.326
same,glycan array binding signal (z-score),[14],-0.325
same,glycan array binding signal (z-score),[15],-0.375
same,glycan array binding signal (z-score),[16],-0.392
same,glycan array binding signal (z-score),[17],-0.356
same,glycan array binding signal (z-score),[18],-0.395
same,glycan array binding signal (z-score),GlcNAc(b1-6)GalNAc,-0.384
same,glycan array binding signal (z-score),GlcNAc3Prop(b1-4)GlcNAc,-0.204
same,glycan array binding signal (z-score),[19],-0.358
same,glycan array binding signal (z-score),Kdn(a2-3)Gal(b1-3)GalNAc,-0.266
same,glycan array binding signal (z-score),Kdn(a2-3)Gal(b1-3)GlcNAc,0.561
same,glycan array binding signal (z-score),Kdn(a2-3)Gal(b1-4)Glc,-0.124
same,glycan array binding signal (z-score),Kdn(a2-3)Gal(b1-4)GlcNAc,-0.024
same,glycan array binding signal (z-score),[20],-0.353
same,glycan array binding signal (z-score),Kdn(a2-6)Gal(b1-4)GlcNAc,-0.355
same,glycan array binding signal (z-score),[21],-0.388
same,glycan array binding signal (z-score),[22],-0.391
same,glycan array binding signal (z-score),Man(a1-2)Man(a1-3)Man,-0.383
same,glycan array binding signal (z-score),[23],-0.377
same,glycan array binding signal (z-score),[24],-0.354
same,glycan array binding signal (z-score),[25],-0.534
same,glycan array binding signal (z-score),[26],-0.532
same,glycan array binding signal (z-score),[27],-0.344
